Experimental data: the supplement of paper PMC9151546
Most values come without repeats; read them as rough.

How the values were obtained:
CHO-K1 [1] = assay: hypodiploid nuclei frequency (% of nucleated events); higher = more hypodiploid events (aneugenic)
Experimental: (§1)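 Flow-cytometric in vitro micronucleus assay (Litron MicroFlow) in CHO-K1 cells in 96-well plates, 19 concentrations (4.5-200 µM, n=1 per concentration). Without S9, cells were exposed for 24 h and sampled at 48 h. With Aroclor 1254-induced rat liver S9, cells were exposed for 3-4 h and sampled at 27-28 h. Read-outs are %MN and %hypodiploid nuclei relative to nucleated events, and relative survival as the nuclei-to-bead ratio versus the 1% DMSO vehicle control (x100).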

CHO-K1 [2] = assay: relative survival (nuclei to bead ratio vs DMSO control) (% of vehicle control); higher = more surviving cells
Experimental: as §1

CHO-K1 [3] = assay: micronucleus frequency (% of nucleated events); higher = more micronuclei (genotoxic)
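Throughout, for hypodiploid nuclei frequency (% of nucleated events): hypodiploid nuclei gated on a flow cytometer with 488 nm excitation after SYTOX Green staining, cultures at 37 °C, positive controls vinblastine without S9 and cyclophosphamide with S9.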
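Throughout, for micronucleus frequency (% of nucleated events): cells lysed with nuclei stained by SYTOX Green, then micronucleus-gated events counted against nucleated events by flow cytometry with 488 nm excitation.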
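Throughout, for relative survival (nuclei to bead ratio vs DMSO control): Lysed-cell nuclei stained with SYTOX Green and counted against counting beads by flow cytometry at 488 nm excitation, with vinblastine (no S9) and cyclophosphamide (plus S9) as positive controls.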

N#CC(Br)Br [Dibromoacetonitrile]
Conditions | hypodiploid nuclei frequency, CHO-K1 [1] [%] | micronucleus frequency, CHO-K1 [3] [%] | relative survival, CHO-K1 [2]
concentration: 4.5 (µM), S9 metabolic activation: with S9, exposure time: 3-4 hours | 0.12 | 0.96 | 111
concentration: 4.5 (µM), S9 metabolic activation: without S9, exposure time: 24 hours | 1.22 | 1.08 | 102
concentration: 5.63 (µM), S9 metabolic activation: with S9, exposure time: 3-4 hours | 0.28 | 0.82 | 111
concentration: 5.63 (µM), S9 metabolic activation: without S9, exposure time: 24 hours | 1.14 | 1.34 | 118
concentration: 7.04 (µM), S9 metabolic activation: with S9, exposure time: 3-4 hours | 0.36 | 0.78 | 122
concentration: 7.04 (µM), S9 metabolic activation: without S9, exposure time: 24 hours | 1.12 | 1.74 | 107
concentration: 8.8 (µM), S9 metabolic activation: with S9, exposure time: 3-4 hours | 0.2 | 0.96 | 112
concentration: 8.8 (µM), S9 metabolic activation: without S9, exposure time: 24 hours | 1.36 | 1.5 | 98.4
concentration: 11 (µM), S9 metabolic activation: with S9, exposure time: 3-4 hours | 0.3 | 0.96 | 105
concentration: 11 (µM), S9 metabolic activation: without S9, exposure time: 24 hours | 1.24 | 1.2 | 94.4
concentration: 13.7 (µM), S9 metabolic activation: with S9, exposure time: 3-4 hours | 0.22 | 1.22 | 109
concentration: 13.7 (µM), S9 metabolic activation: without S9, exposure time: 24 hours | 1.16 | 1.08 | 112
concentration: 17.2 (µM), S9 metabolic activation: with S9, exposure time: 3-4 hours | 0.18 | 1.28 | 104
concentration: 17.2 (µM), S9 metabolic activation: without S9, exposure time: 24 hours | 0.98 | 1.44 | 98.4
concentration: 21.5 (µM), S9 metabolic activation: with S9, exposure time: 3-4 hours | 0.18 | 1.22 | 106
concentration: 21.5 (µM), S9 metabolic activation: without S9, exposure time: 24 hours | 1.02 | 1.22 | 89.7
concentration: 26.8 (µM), S9 metabolic activation: with S9, exposure time: 3-4 hours | 0.48 | 1.1 | 122
concentration: 26.8 (µM), S9 metabolic activation: without S9, exposure time: 24 hours | 1.3 | 1.58 | 102
concentration: 33.6 (µM), S9 metabolic activation: with S9, exposure time: 3-4 hours | 0.42 | 1.04 | 102
concentration: 33.6 (µM), S9 metabolic activation: without S9, exposure time: 24 hours | 1.78 | 1.86 | 95.7
concentration: 41.9 (µM), S9 metabolic activation: with S9, exposure time: 3-4 hours | 0.28 | 0.92 | 86.8
concentration: 41.9 (µM), S9 metabolic activation: without S9, exposure time: 24 hours | 1.32 | 1.58 | 102
concentration: 52.4 (µM), S9 metabolic activation: with S9, exposure time: 3-4 hours | 0.18 | 1.14 | 93.5
concentration: 52.4 (µM), S9 metabolic activation: without S9, exposure time: 24 hours | 1.46 | 3.08 | 92.3
concentration: 65.5 (µM), S9 metabolic activation: with S9, exposure time: 3-4 hours | 0.22 | 1.02 | 96.2
concentration: 65.5 (µM), S9 metabolic activation: without S9, exposure time: 24 hours | 2.04 | 1.84 | 82.6
concentration: 81.9 (µM), S9 metabolic activation: with S9, exposure time: 3-4 hours | 0.22 | 0.66 | 82.8
concentration: 81.9 (µM), S9 metabolic activation: without S9, exposure time: 24 hours | 2.14 | 2.22 | 81.2
concentration: 102 (µM), S9 metabolic activation: with S9, exposure time: 3-4 hours | 0.36 | 0.96 | 88.9
concentration: 102 (µM), S9 metabolic activation: without S9, exposure time: 24 hours | 2.66 | 2.1 | 75.1
concentration: 128 (µM), S9 metabolic activation: with S9, exposure time: 3-4 hours | 0.28 | 1.06 | 94.6
concentration: 128 (µM), S9 metabolic activation: without S9, exposure time: 24 hours | 3.06 | 2.2 | 64.1
concentration: 160 (µM), S9 metabolic activation: with S9, exposure time: 3-4 hours | 0.44 | 1.78 | 94.3
concentration: 160 (µM), S9 metabolic activation: without S9, exposure time: 24 hours | 3.3 | 2.96 | 49.6
concentration: 200 (µM), S9 metabolic activation: with S9, exposure time: 3-4 hours | 0.32 | 1.02 | 114
concentration: 200 (µM), S9 metabolic activation: without S9, exposure time: 24 hours | 2.26 | 2.28 | 43.7

O=C(O)C(Cl)Cl [Dichloroacetic acid]
Conditions | hypodiploid nuclei frequency, CHO-K1 [1] [%] | micronucleus frequency, CHO-K1 [3] [%] | relative survival, CHO-K1 [2]
concentration: 4.48 (µM), S9 metabolic activation: with S9, exposure time: 3-4 hours | 0.3 | 1.66 | 123
concentration: 4.48 (µM), S9 metabolic activation: without S9, exposure time: 24 hours | 0.74 | 1.4 | 134
concentration: 5.6 (µM), S9 metabolic activation: with S9, exposure time: 3-4 hours | 0.18 | 1.12 | 93.8
concentration: 5.6 (µM), S9 metabolic activation: without S9, exposure time: 24 hours | 0.88 | 1.16 | 114
concentration: 7 (µM), S9 metabolic activation: with S9, exposure time: 3-4 hours | 0.32 | 0.92 | 90.1
concentration: 7 (µM), S9 metabolic activation: without S9, exposure time: 24 hours | 0.62 | 1.1 | 129
concentration: 8.75 (µM), S9 metabolic activation: with S9, exposure time: 3-4 hours | 0.16 | 1.06 | 81.6
concentration: 8.75 (µM), S9 metabolic activation: without S9, exposure time: 24 hours | 0.62 | 1.6 | 103
concentration: 10.9 (µM), S9 metabolic activation: with S9, exposure time: 3-4 hours | 0.34 | 0.98 | 92.2
concentration: 10.9 (µM), S9 metabolic activation: without S9, exposure time: 24 hours | 0.68 | 1.42 | 123
concentration: 13.7 (µM), S9 metabolic activation: with S9, exposure time: 3-4 hours | 0.28 | 1.22 | 85.2
concentration: 13.7 (µM), S9 metabolic activation: without S9, exposure time: 24 hours | 0.64 | 1.14 | 134
concentration: 17.1 (µM), S9 metabolic activation: with S9, exposure time: 3-4 hours | 0.24 | 1.38 | 67.8
concentration: 17.1 (µM), S9 metabolic activation: without S9, exposure time: 24 hours | 0.64 | 1.62 | 90.3
concentration: 21.4 (µM), S9 metabolic activation: with S9, exposure time: 3-4 hours | 0.28 | 1.24 | 84.8
concentration: 21.4 (µM), S9 metabolic activation: without S9, exposure time: 24 hours | 0.88 | 1.14 | 107
concentration: 26.7 (µM), S9 metabolic activation: with S9, exposure time: 3-4 hours | 0.3 | 1.66 | 84.8
concentration: 26.7 (µM), S9 metabolic activation: without S9, exposure time: 24 hours | 0.7 | 1.18 | 100
concentration: 33.4 (µM), S9 metabolic activation: with S9, exposure time: 3-4 hours | 0.3 | 1.58 | 87.7
concentration: 33.4 (µM), S9 metabolic activation: without S9, exposure time: 24 hours | 0.76 | 1.18 | 85
concentration: 41.7 (µM), S9 metabolic activation: with S9, exposure time: 3-4 hours | 0.16 | 1.72 | 123
concentration: 41.7 (µM), S9 metabolic activation: without S9, exposure time: 24 hours | 0.52 | 1.08 | 95.7
concentration: 52.2 (µM), S9 metabolic activation: with S9, exposure time: 3-4 hours | 0.26 | 1.32 | 86.5
concentration: 52.2 (µM), S9 metabolic activation: without S9, exposure time: 24 hours | 1.06 | 1.34 | 108
concentration: 65.2 (µM), S9 metabolic activation: with S9, exposure time: 3-4 hours | 0.42 | 1.4 | 93.5
concentration: 65.2 (µM), S9 metabolic activation: without S9, exposure time: 24 hours | 0.82 | 1.22 | 117
concentration: 81.5 (µM), S9 metabolic activation: with S9, exposure time: 3-4 hours | 0.18 | 1.22 | 79.8
concentration: 81.5 (µM), S9 metabolic activation: without S9, exposure time: 24 hours | 1.06 | 1.76 | 96.4
concentration: 102 (µM), S9 metabolic activation: with S9, exposure time: 3-4 hours | 0.3 | 1.1 | 100
concentration: 102 (µM), S9 metabolic activation: without S9, exposure time: 24 hours | 1.02 | 1.32 | 73.2
concentration: 127 (µM), S9 metabolic activation: with S9, exposure time: 3-4 hours | 0.24 | 1.54 | 73.7
concentration: 127 (µM), S9 metabolic activation: without S9, exposure time: 24 hours | 1.36 | 2.56 | 96.4
concentration: 159 (µM), S9 metabolic activation: with S9, exposure time: 3-4 hours | 0.18 | 1 | 53.1
concentration: 159 (µM), S9 metabolic activation: without S9, exposure time: 24 hours | 1.16 | 2.52 | 92.8
concentration: 199 (µM), S9 metabolic activation: with S9, exposure time: 3-4 hours | 0.24 | 1.38 | 82
concentration: 199 (µM), S9 metabolic activation: without S9, exposure time: 24 hours | 1.2 | 2.3 | 70.2
